The densities may have been worked out from excess volumes.
Experiment: xn = mol fraction of the nth substance listed
Conditions: 100 kPa

CCCC[N+]1(C)CCCC1.O=S(=O)([N-]S(=O)(=O)C(F)(F)F)C(F)(F)F + Cc1ccccc1
mass density [kg/m3]
Conditions	x2 = 0	x2 = 0.1093	x2 = 0.1978	x2 = 0.3041	x2 = 0.3965	x2 = 0.5054	x2 = 0.6027	x2 = 0.7066
293.15 K	1398.4	1378.2	1359.5	1333.5	1306.4	1268	1225.1	1166.4
298.15 K	–	1373.8	1355	1329	1301.9	–	–	1161.8
303.15 K	1389.5	1369.3	1350.6	–	–	1259	1216	1157.2
308.15 K	1385.1	1364.9	1346.1	1320.1	1293	1254.5	1211.4	1152.6
313.15 K	–	1360.5	1341.7	–	–	1250	1206.9	–

CCCC[n+]1ccccc1.O=S(=O)([N-]S(=O)(=O)C(F)(F)F)C(F)(F)F + Cc1ccccc1
mass density [kg/m3]
Conditions	x2 = 0	x2 = 0.0994	x2 = 0.2022	x2 = 0.2939	x2 = 0.3972	x2 = 0.5025	x2 = 0.6068	x2 = 0.7033
293.15 K	1452.8	1431.6	1406.4	1380.5	–	1304.1	–	1191.8
298.15 K	–	1426.9	1401.7	1375.8	1341.5	–	1247.7	1187.1
303.15 K	1443.4	1422.2	1397.1	–	1336.8	1294.7	1242.9	1182.3
308.15 K	1438.7	1417.4	1392.4	1366.5	–	–	1238.2	1177.6
313.15 K	1434.1	1412.7	1387.7	1361.8	–	1285.3	–	1172.8

CCCCCC[N+]1(C)CCCC1.O=S(=O)([N-]S(=O)(=O)C(F)(F)F)C(F)(F)F + Cc1ccccc1
mass density [kg/m3]
Conditions	x2 = 0	x2 = 0.0942	x2 = 0.1943	x2 = 0.29	x2 = 0.3938	x2 = 0.493	x2 = 0.5961	x2 = 0.6986	x2 = 0.7993
293.15 K	1339.5	1325.7	1309	1290.1	–	1237.1	1199.6	1150.9	–
298.15 K	1335.2	1321.4	1304.7	1285.8	1261.4	1232.8	1195.2	1146.4	1081.3
303.15 K	1331	1317.2	1300.4	1281.5	1257.1	1228.4	–	1141.9	1076.8
308.15 K	1326.8	1312.9	1296.2	–	1252.8	1224	1186.3	1137.4	–
313.15 K	–	1308.7	1291.9	1272.9	1248.4	1219.7	1181.9	1132.9	1067.6

Cc1ccccc1 + CCCCCC[N+]1(C)CCCC1.O=S(=O)([N-]S(=O)(=O)C(F)(F)F)C(F)(F)F
x1 = 1
Conditions	mass density [kg/m3]
293.15 K	866.9
298.15 K	862.2
303.15 K	857.5
313.15 K	848.2

Cc1ccccc1 + CCCC[n+]1ccccc1.O=S(=O)([N-]S(=O)(=O)C(F)(F)F)C(F)(F)F
x1 = 1
Conditions	mass density [kg/m3]
293.15 K	866.9
298.15 K	862.2
303.15 K	857.5
308.15 K	852.9
313.15 K	848.2

Cc1ccccc1 + CCCC[N+]1(C)CCCC1.O=S(=O)([N-]S(=O)(=O)C(F)(F)F)C(F)(F)F
x1 = 1
Conditions	mass density [kg/m3]
293.15 K	866.9
298.15 K	862.2
303.15 K	857.5
313.15 K	848.2

Reference: a compilation of properties of binary mixtures (doi:10.1016/j.molliq.2020.112754)
